Measured values from PMC8115694, “Distinct axial and lateral interactions within homologous filaments dictate the signaling specificity and order of the AIM2-ASC inflammasome” (Nature Communications, 2021).

Target: the molecule itself
Experiment: FRET or BRET; polymerization assay: 2 uM FRET mix (donor- and acceptor-labelled) of MBP-tagged AIM2^PYD or ASC^PYD with TEVp in a 384-well plate, with or without dsDNA-bound AIM2^FL or precleaved ASC^FL

B1: ASC^PYD ([…]), fluorophore-labelled (domain or fragment)
chain: not shown
modifications: fluorophore label (Alexa488 or Dylight550; FRET donor or acceptor), site not stated
notes: ASC (apoptosis-associated speck-forming protein containing CARD), human, pyrin domain, […]; also called MBP-ASC^PYD; source: MBP cleaved with TEVp in the assay; not shown: MBP, N-terminal, cleaved
B1: binds.
